Assay results taken from PubChem BioAssay AID686979 (National Center for Advancing Translational Sciences (NCATS), 2013).
Values joined by “and” are separate entries in the source; they are usually repeats but may differ in a detail not shown here. Equal values may be shown once. Among all 420,000 compounds or so, about 50,000 (12%) were called active. The shares of active, inactive and inconclusive entries below differ from those in the screen. The call rests on the fitted dose curve; in most records, active means well fitted inhibition curve with a large enough effect; inconclusive means small, poorly fitted or top-dose-only effect; inactive means flat fitted curve, though single readings scatter. Potencies of inconclusive entries are doubtful fits and often do not repeat. Where a structure was tested more than once in an assay, its records may differ in their call.

Assay: qHTS for Inhibitors of human tyrosyl-DNA phosphodiesterase 1 (TDP1): qHTS in cells in presence of CPT; further: nearly all actives have a fitted effect of over 55% in size
Conditions: chicken DT40 Tdp1-/-;hTDP1 cells + 20 nM CPT, ATP luminescence, 48 h; activity change, negative = growth inhibition: at 46.2 µM (top of the series)
Summary of the method: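 Cell growth measured by CellTiter-Glo luminescence after a minimum 48 h, 37 C compound exposure with 20 nM CPT in Tdp1-knockout DT40 cells stably expressing hTDP1, seeded 400/well; qHTS titration format.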
On the % scale 0 is the no-effect control and ±100 the full control effect; potency means the concentration at half of the fitted maximal effect; tags describe the fitted curve by direction and shape.

Compound | activity change, negative = growth inhibition | Potency
O=C(Nc1ccccc1)C1CCN(C(=O)c2ccc(Br)cc2)CC1 | inconclusive: -31.2% [inhibitor] | –
Cc1nnsc1SCCNC(=O)Nc1ccc(Cl)cc1 | – | inconclusive: 20.6 µM [inhibitor, single point]
CN(Cc1ccccc1)C(=O)c1ccc(Cl)c([N+](=O)[O-])c1 | – | inconclusive: 29.1 µM [inhibitor, single point]
Cc1c(OC(C)C(=O)NCCCn2ccnc2)ccc2c3c(c(=O)oc12)CCC3 (stereo not given) | inactive: -24.3% | –
COc1ccc(-c2cc(=O)c3c(O)cc(O)cc3o2)cc1 | – | inconclusive: 20.6 nM [inhibitor, full curve, poor fit] and inconclusive: 26.6 µM [inhibitor, partial curve, poor fit] and inconclusive: 10.3 µM [inhibitor, partial curve, poor fit]
CC(c1nc2ccccc2[nH]1)N(C(=O)Cc1csc2ccccc12)c1cccnc1 (stereo not given) | – | inconclusive: 16.4 µM [inhibitor, single point]
CC(C)(C)c1cc(C(=O)NNc2cccc(Cl)c2)n(Cc2ccccc2)n1 | inconclusive: -31.7% [inhibitor] | –
S=c1nc2c(n[nH]1)c1ccccc1n2CCc1ccccc1 | – | inconclusive: 23.1 µM [inhibitor, single point]
CCc1ccc(S(=O)(=O)c2nnn3c2nc(Nc2ccc(NC(C)=O)cc2)c2sccc23)cc1 | – | active: 23.1 µM
Cc1nc(S/C(C(=O)O)=C2/C(=O)Nc3ccccc32)n[nH]1 | inactive: -28.9% | –
Cc1ccc(OCc2ccc([N+](=O)[O-])cc2)c([N+](=O)[O-])n1 | inactive: 4.06% | –
CCn1cc(C(=O)Nc2cccc(NC(C)=O)c2)c2cc(OC)c(OC)cc2c1=O | inactive: -13.6% | –
Cc1cc(C)nc(N2CCCC(C(=O)Nc3cccc(Cl)c3)C2)n1 (stereo not given) | – | inconclusive: 6.51 µM [inhibitor, partial curve]
C/C(=N/Nc1nc(-c2ccccc2F)nc2ccccc12)c1ccccc1O | – | active: 7.31 µM
Cc1[nH]c2ccccc2c1C(=O)/C=C/c1ccccc1 | – | inconclusive: 29.1 µM [inhibitor, single point]
O=C(CNC(=O)c1ccc(Br)cc1)c1ccc(Br)cc1 | inactive: -3.62% | –
COc1ccc(OC)c(NC(=O)Cn2c(=O)cc(-c3ccccc3)c3c(C)nn(C)c32)c1 | – | inconclusive: 29.1 µM [inhibitor, single point]
O=C(CCCCCn1c(=O)[nH]c2ccccc2c1=O)N1CCN(Cc2ccc3c(c2)OCO3)CC1 | – | active: 13 µM
O=C(Nc1ccc(S(=O)(=O)N2CCOCC2)cc1)c1cccc([N+](=O)[O-])c1 | – | inconclusive: 23.1 µM [inhibitor, partial curve]
O=C(Nc1ccc(F)c(Cl)c1)c1cc(C2CCCN(S(=O)(=O)c3cccc4cccnc34)C2)on1 (stereo not given) | – | inconclusive: 29.1 µM [inhibitor, single point]
COc1cccc(OCCn2ccnc2)c1 | inconclusive: -33% [inhibitor] | –
Cc1cc(N2CCOCC2)nc2ccc(NC(=S)NC(C)C)cc12 | – | inconclusive: 18.4 µM [inhibitor, single point]
COc1ccc(C(C)(O)c2nc(-c3cccc(O)c3)cs2)cc1 (stereo not given) | – | active: 18.4 µM
CC(=O)c1c(C)oc2c1cc(NS(=O)(=O)c1ccc(Cl)c(C)c1)c1ccccc12 | – | inconclusive: 23.1 µM [inhibitor, single point]

Compound | activity change, negative = growth inhibition | Potency
CCOC(=O)c1ccc(Oc2cc(C)nc(SC)n2)cc1 | – | active: 8.2 µM
O=S(=O)(NCc1nc2cccnc2n1Cc1ccccc1Cl)c1ccc(F)c(Cl)c1 | – | inconclusive: 29.1 µM [inhibitor, single point]
CCNc1c([N+](=O)[O-])c(=O)n(CC)c2ccccc12 | inactive: -2% | –
CS(=O)(=O)N1CCN(c2ccc(NC(=O)c3cc4ccccc4o3)cc2)CC1 | inactive: -26.1% | –
COCc1nnc(NC(C)=O)s1 | inactive: 2.66% | –
CN(C)S(=O)(=O)c1cccc(NC(=O)c2ccc(S(=O)(=O)N3CCCC3)cc2)c1 | – | inconclusive: 25.9 µM [inhibitor, single point]
O=C(NCCc1ccc(F)cc1)c1ccc(NS(=O)(=O)c2ccc3[nH]c(=O)[nH]c3c2)cc1 | inactive: 8.25% | –
Cc1nnc(NC(=O)CSc2nnc(CCNC(=O)c3ccccc3F)n2C)s1 | inactive: 12.7% | –
Cc1sc(-n2c(C)ccc2C)c(C#N)c1C | – | inconclusive: 29.1 µM [inhibitor, single point]
CCCC(CCC)C(=O)Nc1cccc(-c2cn3c(n2)SCC3)c1 | inactive: -20.1% | –
O=C(Nc1ccc(N=Nc2ccccc2)cc1)c1ccc(Cl)cc1Cl | – | inconclusive: 18.4 µM [inhibitor, single point]
Cc1cccc(NS(=O)(=O)c2cccc(C(=O)N3CCN(C/C=C/c4ccccc4)CC3)c2)c1 | – | inconclusive: 25.9 µM [inhibitor, partial curve, poor fit]
Cc1cccc(OCC(=O)Nc2nnc(S(=O)(=O)N3CCc4ccccc43)s2)c1 | – | inconclusive: 18.4 µM [inhibitor, single point]
COc1cc(NC(=O)c2ccc(OC)c([N+](=O)[O-])c2)ccc1NC(=O)c1cccs1 | inactive: 4.64% | –
COc1cccc(NC(=O)N2CCN(c3cccc(C)c3)C(C)C2)c1 (stereo not given) | – | inconclusive: 14.6 µM [inhibitor, single point]
O=C(Nc1ccc(Br)cc1)c1cc([N+](=O)[O-])cc([N+](=O)[O-])c1 | – | active: 4.61 µM
CC(C)(C)C(=O)CN1CCN(C2c3ccccc3-c3ccccc32)CC1 | – | inconclusive: 18.4 µM [inhibitor, single point]
C=C1CCN([C@@H](Cc2ccccc2)C(=O)NCCCc2ccccc2)S(=O)(=O)c2ccccc21 | – | active: 23.1 µM
CCOC(=O)c1sc2nc(C)nc(Nc3ccc(OC)c(OC)c3)c2c1C | inactive: -5.47% | –
Cc1ccc(-n2c(Cc3ccccc3)nnc2SCc2nc(-c3cccs3)no2)cc1C | – | inconclusive: 20.6 µM [inhibitor, single point]
Cc1cc(C)cc(CC(=O)N2CCC2(C)C(=O)NS(=O)(=O)c2cccc(OC(F)F)c2)c1 (stereo not given) | inactive: 17.6% | –
Cc1ccc[n+](CC(=O)Nc2ccc(C)c(C)c2)c1 | – | inconclusive: 11.6 µM [inhibitor, partial curve]
CCOC(=O)N1CCN(C(=S)Nc2ccc(C)cc2C)CC1 | inactive: -11.4% | –
Cc1nc(-c2ccc(C)c(N3CCN(C(=O)Nc4cccc(Cl)c4C)CC3)c2)no1 | – | inconclusive: 25.9 µM [inhibitor, single point]

Compound | activity change, negative = growth inhibition | Potency
CCOC(=O)c1cnc(-n2nc(C)cc2C)nc1NC1CCCCC1 | – | active: 4.61 µM
CCCn1nnnc1SCC(=O)Nc1sc(C)c(C)c1C#N | – | inconclusive: 29.1 µM [inhibitor, single point]
CCc1cccc(C)c1NC(=O)CN(C)Cc1ccccc1F | – | active: 14.6 µM
Cc1cc(C)nc(N2CCC(C(=O)Nc3cccc(C(F)(F)F)c3)CC2)n1 | – | inconclusive: 23.1 µM [inhibitor, partial curve]
COc1cccc(CNc2nc3cc(-c4cccc(C(=O)NCCO)c4)sc3c(=O)n2C)c1 | – | inconclusive: 29.1 µM [inhibitor, single point]
CCC(C(=O)Nc1cc(F)ccc1F)n1nc(C)c2c(C)n(-c3ccc(C)cc3)nc2c1=O (stereo not given) | – | active: 14.6 µM
Cc1cc(F)ccc1NC(=O)c1ccc(NS(=O)(=O)c2cccs2)cc1 | inactive: -6.08% | –
O=c1c(O)c(-c2cc(O)c(O)c(O)c2)oc2cc(O)cc(O)c12 | – | inactive and active: 11.2 µM
CCN(CC)S(=O)(=O)c1ccc(NC(=O)CNC2CCCCC2)cc1 | – | inconclusive: 8.2 µM [inhibitor, partial curve]
COc1ccccc1-c1sc2cc3c(cc2c1C#CC1(O)CCCCC1)OCO3 | – | inconclusive: 29.1 µM [inhibitor, single point]
C/C(=N\NC(=S)NCc1ccccc1)c1ccc(Cl)cc1 | – | inconclusive: 29.1 µM [inhibitor, single point]
COc1ccc(-c2nnc(NC(=O)CS(=O)(=O)c3ccc(F)cc3)o2)cc1 | – | inconclusive: 14.6 µM [inhibitor, partial curve]
COc1ccc(CCC(=O)NC2CC(=O)N(c3ccc(OC)cc3)C2)cc1 (stereo not given) | inactive: -20.8% | –
CSc1nc2ccc(NC(=O)C3CC(=O)N(Cc4ccccc4)C3)cc2s1 (stereo not given) | inactive: -17.3% | –
CCOC(=O)c1ccc(NC(=O)CSC(=S)N2CCOCC2)cc1 | – | inconclusive: 29.1 µM [inhibitor, single point]
Cc1cc(C)c2c(=O)cc(CSc3n[nH]c(C)n3)[nH]c2c1 | inactive: -4.05% | –
CSc1ccccc1C(=O)N(CC1CCCO1)c1c(N)n(Cc2ccccc2)c(=O)[nH]c1=O (stereo not given) | inactive: -0.246% | –
Cc1cccc(NC(=O)C(=O)NCCc2csc(-c3ccc(F)cc3)n2)c1C | – | inconclusive: 20.6 µM [inhibitor, partial curve]
CCc1ccccc1NC(=O)c1noc2c1CC(C(C)(C)C)CC2 (stereo not given) | – | inconclusive: 18.4 µM [inhibitor, single point]
Cc1ccc(F)cc1C(=O)N1CCCC(c2cc(C(=O)NCc3ccc(F)cc3)no2)C1 (stereo not given) | – | inconclusive: 23.1 µM [inhibitor, single point]
COc1cccc(NC(=O)CN(C)CC(=O)NCc2ccc(F)cc2)c1 | – | inconclusive: 25.9 µM [inhibitor, single point]
O=C(CSCc1ccc(F)cc1)N1CCc2c([nH]c3ccccc23)C1c1ccc(Cl)cc1 (stereo not given) | – | inconclusive: 18.4 µM [inhibitor, single point]
